Measured values reported in the supplement of paper PMC8728848.
The other results are listed elsewhere or left out.

Legend:
Assay in all cases: glycan array binding signal (z-score within array); higher = stronger binding
Details in all cases: glycan notation: IUPAC condensed, linker removed; mutation: E347A
Gal(b1-2)Gal = biological target: Gal(b1-2)Gal
In short: (§1)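 Glycan array data came from 3228 arrays in the Consortium for Functional Glycomics database, and only arrays with an available protein sequence were kept. Glycan names were put into IUPAC-condensed notation, and columns mapping to the same glycan were averaged. The binding signal is a within-array Z-score, averaged across arrays of one protein sequence run at different concentrations or buffers and across linkers. A negative Z-score can be read as non-binding.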

Gal(b1-3)Gal = biological target: Gal(b1-3)Gal
In short: as §1

Gal(b1-3)Gal(b1-4)GlcNAc = biological target: Gal(b1-3)Gal(b1-4)GlcNAc
In short: as §1

Gal(b1-3)GalNAc = biological target: Gal(b1-3)GalNAc
In short: as §1

[1] = biological target: Gal(b1-3)GalNAc(b1-3)Gal(a1-4)Gal(b1-4)Glc
In short: as §1

[2] = biological target: Gal(b1-3)GalNAc(b1-4)Gal(b1-4)Glc
In short: as §1

[3] = biological target: Gal(b1-3)GalNAc(b1-4)[Neu5Ac(a2-3)]Gal(b1-4)Glc
In short: as §1

Gal(b1-3)GlcNAc = biological target: Gal(b1-3)GlcNAc
In short: as §1

[4] = biological target: Gal(b1-3)GlcNAc(b1-2)Man(a1-3)[Gal(b1-3)GlcNAc(b1-2)Man(a1-6)]Man(b1-4)GlcNAc(b1-4)GlcNAc
In short: as §1

[5] = biological target: Gal(b1-3)GlcNAc(b1-3)Gal(b1-3)GlcNAc
In short: as §1

[6] = biological target: Gal(b1-3)GlcNAc(b1-3)Gal(b1-4)Glc
In short: as §1

[7] = biological target: Gal(b1-3)GlcNAc(b1-3)Gal(b1-4)GlcNAc
In short: as §1

[8] = biological target: Gal(b1-3)[Fuc(a1-4)]GlcNAc
In short: as §1

[9] = biological target: Gal(b1-3)[Fuc(a1-4)]GlcNAc(b1-3)Gal(b1-3)[Fuc(a1-4)]GlcNAc
In short: as §1

[10] = biological target: Gal(b1-3)[Fuc(a1-4)]GlcNAc(b1-3)Gal(b1-4)GlcNAc
In short: as §1

[11] = biological target: Gal(b1-3)[Fuc(a1-4)]GlcNAc(b1-3)Gal(b1-4)[Fuc(a1-3)]GlcNAc
In short: as §1

[12] = biological target: Gal(b1-3)[GlcNAc(b1-6)]GalNAc
In short: as §1

[13] = biological target: Gal(b1-3)[Neu5Ac(a2-6)]GalNAc
In short: as §1

[14] = biological target: Gal(b1-3)[Neu5Ac(a2-6)]GlcNAc(b1-6)Gal(b1-4)Glc
In short: as §1

[15] = biological target: Gal(b1-3)[Neu5Ac(b2-6)]GalNAc
In short: as §1

[16] = biological target: Gal(b1-4)GalNAc(a1-3)[Fuc(a1-2)]Gal(b1-4)GlcNAc
In short: as §1

[17] = biological target: Gal(b1-4)GalNAc(b1-3)[Fuc(a1-2)]Gal(b1-4)GlcNAc
In short: as §1

Gal(b1-4)Glc = biological target: Gal(b1-4)Glc
In short: as §1

Gal(b1-4)Glc6S = biological target: Gal(b1-4)Glc6S
In short: as §1

Gal(b1-4)GlcNAc = biological target: Gal(b1-4)GlcNAc
In short: as §1

[18] = biological target: Gal(b1-4)GlcNAc(a1-6)Gal(b1-4)GlcNAc
In short: as §1

[19] = biological target: Gal(b1-4)GlcNAc(b1-2)Man(a1-3)[Gal(b1-4)GlcNAc(b1-2)Man(a1-6)]Man(b1-4)GlcNAc(b1-4)GlcNAc
In short: as §1

[20] = biological target: Gal(b1-4)GlcNAc(b1-3)Gal(b1-3)GlcNAc
In short: as §1

[21] = biological target: Gal(b1-4)GlcNAc(b1-3)Gal(b1-4)Glc
In short: as §1

[22] = biological target: Gal(b1-4)GlcNAc(b1-3)Gal(b1-4)GlcNAc
In short: as §1

[23] = biological target: Gal(b1-4)GlcNAc(b1-3)Gal(b1-4)GlcNAc(b1-3)Gal(b1-4)GlcNAc
In short: as §1

[24] = biological target: Gal(b1-4)GlcNAc(b1-3)Gal(b1-4)[Fuc(a1-3)]GlcNAc(b1-3)Gal(b1-4)[Fuc(a1-3)]GlcNAc
In short: as §1

[25] = biological target: Gal(b1-4)GlcNAc(b1-3)GalNAc
In short: as §1

[26] = biological target: Gal(b1-4)GlcNAc(b1-3)[Gal(b1-4)GlcNAc(b1-6)]Gal(b1-4)GlcNAc
In short: as §1

[27] = biological target: Gal(b1-4)GlcNAc(b1-3)[GlcNAc(b1-6)]Gal(b1-4)GlcNAc
In short: as §1

[28] = biological target: Gal(b1-4)GlcNAc(b1-6)Gal(b1-4)GlcNAc
In short: as §1

[29] = biological target: Gal(b1-4)GlcNAc(b1-6)Gal(b1-4)GlcNAc(b1-6)GalNAc
In short: as §1

[30] = biological target: Gal(b1-4)GlcNAc(b1-6)GalNAc
In short: as §1

[31] = biological target: Gal(b1-4)GlcNAc(b1-6)[Gal(b1-3)]GalNAc
In short: as §1

Gal3S(b1-3)GalNAc = biological target: Gal3S(b1-3)GalNAc
In short: as §1

Gal3S(b1-3)GlcNAc = biological target: Gal3S(b1-3)GlcNAc
In short: as §1

[32] = biological target: Gal3S(b1-3)[Fuc(a1-4)]GlcNAc
In short: as §1

Gal3S(b1-4)Glc = biological target: Gal3S(b1-4)Glc
In short: as §1

Gal3S(b1-4)Glc6S = biological target: Gal3S(b1-4)Glc6S
In short: as §1

Gal3S(b1-4)GlcNAc = biological target: Gal3S(b1-4)GlcNAc
In short: as §1

Gal3S(b1-4)GlcNAc6S = biological target: Gal3S(b1-4)GlcNAc6S
In short: as §1

[33] = biological target: Gal3S(b1-4)[Fuc(a1-3)]Glc
In short: as §1

Gal3S4S(b1-4)GlcNAc = biological target: Gal3S4S(b1-4)GlcNAc
In short: as §1

Gal3S6S(b1-4)GlcNAc = biological target: Gal3S6S(b1-4)GlcNAc
In short: as §1

Gal3S6S(b1-4)GlcNAc6S = biological target: Gal3S6S(b1-4)GlcNAc6S
In short: as §1

Gal4S(b1-4)GlcNAc = biological target: Gal4S(b1-4)GlcNAc
In short: as §1

Gal4S6S(b1-4)GlcNAc = biological target: Gal4S6S(b1-4)GlcNAc
In short: as §1

Gal6S(b1-4)Glc = biological target: Gal6S(b1-4)Glc
In short: as §1

Gal6S(b1-4)Glc6S = biological target: Gal6S(b1-4)Glc6S
In short: as §1

Gal6S(b1-4)GlcNAc = biological target: Gal6S(b1-4)GlcNAc
In short: as §1

Gal6S(b1-4)GlcNAc6S = biological target: Gal6S(b1-4)GlcNAc6S
In short: as §1

GalNAc(a1-3)Gal = biological target: GalNAc(a1-3)Gal
In short: as §1

GalNAc(a1-3)GalNAc = biological target: GalNAc(a1-3)GalNAc
In short: as §1

GalNAc(b1-3)Gal = biological target: GalNAc(b1-3)Gal
In short: as §1

[34] = biological target: GalNAc(b1-3)Gal(a1-4)Gal(b1-4)GlcNAc
In short: as §1

B1: Surfactant Protein D (Human); Neck + Carbohydrate Recognition Domain (NCRD) (Homo sapiens) (protein)
chain: MLLFLLSALVLLTQPLGYLEAEMKTYSHRTMPSACTLVMCSSVESGLPGRDRDGREGPRGEKGDPGLPGAAGQAGMPGQAGPVGPKGDNGSVGEPGPKGDTGPSGPPGPPGVPGPAGREGALGKQGNIGPQGKPGPKGEAGPKGEVGAPGMQGSAGARGLAGPKGERGVPGERGVPGNTGAAGSAGAMGPQGSPGARGPPGLKGDKGIPGDKGAKGESGLPDVASLRQQVEALQGQVQHLQAAFSQYKKVELFPNGQSVGEKIFKTAQFVKPFTEAQLLCTQAGGQLASPRSAAENAALQQLVVAKNEAAFLSMTDSKTEGKFTYPTGESLVYSNWAPGEPNDDGGSADCVEIFTNGKWNDRACGAKRLVVCEF
- glycan array binding signal (z-score) (Gal(b1-2)Gal): -0.48
- glycan array binding signal (z-score) (Gal(b1-3)Gal): -0.232
- glycan array binding signal (z-score) (Gal(b1-3)Gal(b1-4)GlcNAc): -0.237
- glycan array binding signal (z-score) (Gal(b1-3)GalNAc): -0.293
- glycan array binding signal (z-score) [1]: -0.446
- glycan array binding signal (z-score) [2]: -0.19
- glycan array binding signal (z-score) [3]: 0.087
- glycan array binding signal (z-score) (Gal(b1-3)GlcNAc): -0.046
- glycan array binding signal (z-score) [4]: -0.351
- glycan array binding signal (z-score) [5]: -0.162
- glycan array binding signal (z-score) [6]: -0.274
- glycan array binding signal (z-score) [7]: -0.211
- glycan array binding signal (z-score) [8]: -0.164
- glycan array binding signal (z-score) [9]: -0.057
- glycan array binding signal (z-score) [10]: -0.057
- glycan array binding signal (z-score) [11]: -0.462
- glycan array binding signal (z-score) [12]: -0.15
- glycan array binding signal (z-score) [13]: 0.169
- glycan array binding signal (z-score) [14]: -0.424
- glycan array binding signal (z-score) [15]: -0.188
- glycan array binding signal (z-score) [16]: -0.127
- glycan array binding signal (z-score) [17]: -0.491
- glycan array binding signal (z-score) (Gal(b1-4)Glc): -0.423
- glycan array binding signal (z-score) (Gal(b1-4)Glc6S): -0.101
- glycan array binding signal (z-score) (Gal(b1-4)GlcNAc): -0.359
- glycan array binding signal (z-score) [18]: -0.244
- glycan array binding signal (z-score) [19]: -0.49
- glycan array binding signal (z-score) [20]: -0.253
- glycan array binding signal (z-score) [21]: -0.174
- glycan array binding signal (z-score) [22]: 0.532
- glycan array binding signal (z-score) [23]: -0.292
- glycan array binding signal (z-score) [24]: -0.248
- glycan array binding signal (z-score) [25]: -0.384
- glycan array binding signal (z-score) [26]: 0.161
- glycan array binding signal (z-score) [27]: -0.287
- glycan array binding signal (z-score) [28]: -0.317
- glycan array binding signal (z-score) [29]: 0.971
- glycan array binding signal (z-score) [30]: -0.112
- glycan array binding signal (z-score) [31]: -0.346
- glycan array binding signal (z-score) (Gal3S(b1-3)GalNAc): -0.034
- glycan array binding signal (z-score) (Gal3S(b1-3)GlcNAc): 0.156
- glycan array binding signal (z-score) [32]: 0.518
- glycan array binding signal (z-score) (Gal3S(b1-4)Glc): 0.128
- glycan array binding signal (z-score) (Gal3S(b1-4)Glc6S): 0.558
- glycan array binding signal (z-score) (Gal3S(b1-4)GlcNAc): 0.095
- glycan array binding signal (z-score) (Gal3S(b1-4)GlcNAc6S): 0.483
- glycan array binding signal (z-score) [33]: 0.432
- glycan array binding signal (z-score) (Gal3S4S(b1-4)GlcNAc): 0.14
- glycan array binding signal (z-score) (Gal3S6S(b1-4)GlcNAc): 0.47
- glycan array binding signal (z-score) (Gal3S6S(b1-4)GlcNAc6S): 0.143
- glycan array binding signal (z-score) (Gal4S(b1-4)GlcNAc): 0.027
- glycan array binding signal (z-score) (Gal4S6S(b1-4)GlcNAc): 0.368
- glycan array binding signal (z-score) (Gal6S(b1-4)Glc): 0.097
- glycan array binding signal (z-score) (Gal6S(b1-4)Glc6S): 0.876
- glycan array binding signal (z-score) (Gal6S(b1-4)GlcNAc): 0.523
- glycan array binding signal (z-score) (Gal6S(b1-4)GlcNAc6S): -0.418
- glycan array binding signal (z-score) (GalNAc(a1-3)Gal): 0.211
- glycan array binding signal (z-score) (GalNAc(a1-3)GalNAc): -0.192
- glycan array binding signal (z-score) (GalNAc(b1-3)Gal): -0.445
- glycan array binding signal (z-score) [34]: -0.455
